Experimental data from PubChem BioAssay (Tox21).
“And” between values parts separate entries of the source, which are not always exact repeats. Equal entries are not always repeated. The inconclusive results got no clear call from the source; some entries with a clear call stand among them for comparison. Potencies of inconclusive entries are doubtful fits and often do not repeat. A structure can be active in one record and inactive in another. The source made the active and inactive calls. Unless noted, calls follow the shape of the dose curve; as a rule, active = well fitted curve in the direction sought with a large enough effect in the repeat runs; inconclusive = weak or mixed curves; inactive = no such curve, though single readings can be large; an effect the other way counts as inactive or inconclusive.

Key:
[1] = qHTS assay to identify small molecule antagonists of the sonic hedgehog signaling (Shh) pathway (AID 1259369; calls by dose curve; also: nearly all actives have a fitted effect of over 45% in size; as to activity change, negative = inhibition: % is scaled to controls: 0 for no effect and ±100 for the full control effect)
Procedure, shortened: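 Antagonist mode: compound added to 3T3 Gli1-Luc cells followed by conditioned-medium stimulation, 24 h at 37 C, 5% CO2. Inhibition taken as loss of Gli1-driven luciferase luminescence.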

[2] = molecular target: Estrogen receptor beta (Homo sapiens) (UniProt Q92731); assay: qHTS assay to identify small molecule agonists of the estrogen receptor beta (ER-beta) signaling pathway (AID 1259377; active = well fitted activation curve with a large enough effect in the signal ratio in the repeat runs, not every such curve was filed as active; inconclusive = weak or mixed curves, or effect the other way; the % refers to the signal ratio; as to activation: % is scaled to controls: 0 for no effect and ±100 for the full control effect); settings: ER-beta-UAS-bla HEK293T, beta-lactamase FRET ratio, 16 h
Sequence of UniProt Q92731 (Q92731 whole entry, looked up): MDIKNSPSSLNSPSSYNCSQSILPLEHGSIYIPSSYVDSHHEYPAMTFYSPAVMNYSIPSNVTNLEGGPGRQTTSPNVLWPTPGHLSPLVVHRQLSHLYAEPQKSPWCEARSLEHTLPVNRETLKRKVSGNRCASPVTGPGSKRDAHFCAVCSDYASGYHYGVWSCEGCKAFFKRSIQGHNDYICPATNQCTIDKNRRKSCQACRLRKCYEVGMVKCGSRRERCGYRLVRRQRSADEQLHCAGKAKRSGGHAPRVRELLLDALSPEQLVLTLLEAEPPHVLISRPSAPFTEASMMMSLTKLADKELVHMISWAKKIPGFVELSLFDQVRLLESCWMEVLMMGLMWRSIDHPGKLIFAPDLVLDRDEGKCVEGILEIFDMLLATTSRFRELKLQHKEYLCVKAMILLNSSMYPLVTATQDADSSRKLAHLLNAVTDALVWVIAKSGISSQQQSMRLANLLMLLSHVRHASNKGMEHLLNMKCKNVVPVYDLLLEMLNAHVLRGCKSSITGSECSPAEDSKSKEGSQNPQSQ
Procedure, shortened: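 HEK293T ER-beta-UAS-bla; 2% charcoal-stripped FBS; cells pre-incubated 6 hr, compound 16 hr, 37C/5% CO2; LiveBLAzer B/G FRET substrate 2 h RT; fluorescence intensity read.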

[3] = molecular target: Estrogen receptor beta (Homo sapiens) (UniProt Q92731); assay: qHTS assay to identify small molecule antagonists of the estrogen receptor beta (ER-beta) signaling pathway (AID 1259378; active = well fitted inhibition curve with a large enough effect in the signal ratio in the repeat runs, not every such curve was filed as active; inconclusive = weak or mixed curves, or effect the other way; inactive = no such curve, though single readings can be large or run the other way; the % refers to the signal ratio; as to activity, negative = inhibition: % is scaled to controls: 0 for no effect and ±100 for the full control effect); settings: ER-beta-UAS-bla HEK293T, beta-lactamase FRET ratio, 16 h
Procedure, shortened: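 ER-beta-UAS-bla HEK293T cells in 2% charcoal-stripped FBS medium treated with compound plus 1nM final 17-beta-estradiol for 16 hr at 37C. Beta-lactamase reporter read by FRET substrate fluorescence after 2 hours at room temperature.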

[4] = qHTS assay to identify small molecule agonists of the androgen receptor (AR) signaling pathway in the presence of an antagonist - cell viability counter screen (AID 1259379); also: nearly all actives have a fitted effect of over 25% in size
Procedure, shortened: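 Cytotoxicity counter-screen run in the same wells as the nilutamide-challenged (3.0 µM final) AR agonist assay in MDA-kb2 cells. Compounds tested at 15 concentrations for 16 h, 37 °C without CO2; CellTiter-Fluor fluorescence read.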

[5] = qHTS assay to identify small molecule agonists of the estrogen receptor beta (ER-beta) signaling pathway - cell viability counter screen (AID 1259380); also: nearly all actives have a fitted effect of over 30% in size
Procedure, shortened: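 Cell viability counter screen: CellTiter-Glo luminescence (30 min, room temperature) measured in the same wells as the beta-lactamase readout, after 16 hr compound exposure at 37C of ER-beta-bla HEK293T cells in 2% charcoal-stripped FBS medium.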

[6] = qHTS assay to identify small molecule agonists of the estrogen receptor alpha (ER-alpha) signaling pathway in the presence of an antagonist - cell viability counter screen (AID 1259386); also: nearly all actives have a fitted effect of over 30% in size
Procedure, shortened: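 Compounds tested at 15 concentrations for 22 h at 37C alongside 10.0nM (final) ICI-182,780 antagonist, in VM7Luc4E2 cells grown in phenol red-free, charcoal-stripped medium. Viability read by CellTiter-Fluor fluorescence after 1 h reagent incubation.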

[7] = molecular target: Progesterone receptor (Homo sapiens) (UniProt P06401); assay: qHTS assay to identify small molecule antagonists of the progesterone receptor (PR) signaling pathway (AID 1346795; active = well fitted inhibition curve with a large enough effect in the signal ratio in the repeat runs, not every such curve was filed as active; inconclusive = weak or mixed curves; the % refers to the signal ratio); settings: PR-UAS-bla HEK293T, beta-lactamase FRET ratio, 16 h; activity change, negative = inhibition: at 92.4 µM (top of the series) unless noted
Sequence of UniProt P06401 (P06401 whole entry, looked up): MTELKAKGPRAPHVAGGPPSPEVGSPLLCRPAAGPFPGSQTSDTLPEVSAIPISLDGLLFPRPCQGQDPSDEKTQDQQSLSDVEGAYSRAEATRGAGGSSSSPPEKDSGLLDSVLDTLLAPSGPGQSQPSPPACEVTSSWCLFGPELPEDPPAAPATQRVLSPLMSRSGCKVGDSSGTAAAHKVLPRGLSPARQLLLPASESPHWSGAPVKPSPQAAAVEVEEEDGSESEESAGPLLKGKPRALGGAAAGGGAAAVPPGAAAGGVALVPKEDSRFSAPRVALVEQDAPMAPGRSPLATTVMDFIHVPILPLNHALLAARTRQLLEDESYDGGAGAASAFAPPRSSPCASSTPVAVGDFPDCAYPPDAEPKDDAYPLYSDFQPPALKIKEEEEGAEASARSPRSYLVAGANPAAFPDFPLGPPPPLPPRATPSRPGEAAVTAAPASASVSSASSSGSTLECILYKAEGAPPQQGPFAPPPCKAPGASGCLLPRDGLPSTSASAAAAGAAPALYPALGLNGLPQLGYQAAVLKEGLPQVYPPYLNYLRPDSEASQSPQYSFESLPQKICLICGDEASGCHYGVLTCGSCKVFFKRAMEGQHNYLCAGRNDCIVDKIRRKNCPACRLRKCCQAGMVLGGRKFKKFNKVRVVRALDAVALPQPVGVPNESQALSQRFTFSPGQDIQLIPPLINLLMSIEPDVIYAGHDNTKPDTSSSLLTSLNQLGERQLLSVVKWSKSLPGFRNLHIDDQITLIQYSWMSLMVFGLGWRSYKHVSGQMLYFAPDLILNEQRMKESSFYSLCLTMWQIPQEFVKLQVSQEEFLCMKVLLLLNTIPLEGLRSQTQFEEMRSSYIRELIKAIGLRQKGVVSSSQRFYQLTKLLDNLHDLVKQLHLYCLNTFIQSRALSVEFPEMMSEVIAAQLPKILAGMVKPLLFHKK
Procedure, shortened: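 Read-out is fluorescence from the LiveBLAzer B/G FRET substrate, cleaved by a UAS-controlled beta-lactamase in PR-UAS-bla HEK293T cells after 16 hr exposure to compound plus 1 nM promegestone (final), followed by 2 hr at room temperature.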

[8] = qHTS assay to identify small molecule agonists of the progesterone receptor (PR) signaling pathway - cell viability counter screen (AID 1346799; calls by dose curve; also: nearly all actives have a fitted effect of over 45% in size)
Procedure, shortened: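 Luminescence from CellTiter-Glo, added after the beta-lactamase FRET read in the same wells, gave cytotoxicity in PR-UAS-bla HEK293T cells treated with compounds for 16 hr at 37C.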

[9] = qHTS assay to identify small molecule antagonists of the estrogen receptor beta (ER-beta) signaling pathway - cell viability counter screen (AID 1259382); also: nearly all actives have a fitted effect of over 55% in size
Procedure, shortened: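 Cytotoxicity was measured in the same wells by CellTiter-Glo luminescence after 30 min at room temperature. Cells were ER-beta-bla HEK293T in charcoal-stripped serum, given compound together with 1 nM E2 and incubated 16 h at 37C.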

[10] = molecular target: Progesterone receptor (Homo sapiens) (UniProt P06401); assay: qHTS assay to identify small molecule agonists of the progesterone receptor (PR) signaling pathway (AID 1346784; calls by dose curve; also: nearly all actives have a fitted effect of over 30% in size; as to activation: % is scaled to controls: 0 for no effect and ±100 for the full control effect); settings: PR-UAS-bla HEK293T, beta-lactamase FRET ratio, 16 h; activation: at 92.4 µM (top of the series) unless noted
Procedure, shortened: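 Beta-lactamase reporter read-out: after 16 hr compound treatment at 37C and a further 2 hr at room temperature with LiveBLAzer B/G FRET substrate, fluorescence was measured in PR-UAS-bla HEK 293T cells grown in 2% charcoal-stripped serum.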

[11] = qHTS assay to identify small molecule antagonists of the progesterone receptor (PR) signaling pathway - cell viability counter screen (AID 1346798); also: nearly all actives have a fitted effect of over 50% in size
Procedure, shortened: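 HEK293T PR-UAS-bla, 2% charcoal-stripped FBS; 4 hr pre-plate; cpd + R5020, 16 h 37C; LiveBLAzer read first; then CellTiter-Glo 30 min RT, luminescence.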

[12] = qHTS assay to identify small molecule antagonists of the TGF-beta/Smad signaling pathway - cell viability counter screen (AID 1346824); also: nearly all actives have a fitted effect of over 50% in size
Procedure, shortened: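 SBE-bla HEK 293T cells, incubated overnight, then compound plus 0.25 ng/mL TGF-beta1 (stock added) for 5 hr at 37 C. Viability was read in the same wells by CellTiter-Glo luminescence after 30 min at room temperature.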

[13] = activation: at 92.4 µM (top of the series) unless noted
[14] = activity, negative = inhibition: at 92.4 µM (top of the series) unless noted
Potency is read from the fitted curve at half-maximal effect; tags tell the direction and shape of the fitted curve or compound fluorescence and quenching.

CC(C)(C)c1ccc(CSc2cnn(C(C)(C)C)c(=O)c2Cl)cc1
Potency [1]: inconclusive: 0.0154 µM [inhibitor, full curve] | Potency [2, 13]: inconclusive: 68.6 µM [rising, single point] | Potency [3, 14]: inconclusive: 0.077 µM [rising, single point] | Potency [4]: active: 0.0433 µM | Potency [5]: inconclusive: 24.3 µM [cytotoxic, partial curve] | Potency [6]: active: 2.43 µM | Potency [7]: inconclusive: 9.69 µM | Potency [8]: inconclusive: 0.0137 µM [rising, full curve]

CC(C)(OO)c1ccccc1
Potency [1]: inconclusive: 2.43 µM [inhibitor, single point]

C[C@]12CCC(=O)C(O)=C1CC[C@@H]1[C@@H]2CC[C@]2(C)C(=O)CC[C@@H]12
Potency [1]: inconclusive: 24.3 µM [inhibitor, partial curve] and inconclusive: 33.5 µM [inhibitor, single point] | activation ([2]; at 42.5 µM (top of the series)): inconclusive: 0.153% | activation ([2]; at 92.4 µM (top of the series)): inconclusive: 1.65% | Potency [3, 14]: inconclusive: 61.1 µM [rising, single point] | activity, negative = inhibition [3, 14]: inconclusive: 2.09% [at 42.5 µM] | Potency [5]: active: 24.3 µM and inconclusive: 668 nM [cytotoxic, single point] | Potency [9]: inconclusive: 24.3 µM [cytotoxic, partial curve] | activation [10]: inconclusive: 2.09% | Potency [11]: inconclusive: 7.7 µM [cytotoxic, full curve] and inconclusive: 29.8 µM [cytotoxic, partial curve, poor fit]

CC(Oc1ccc(Oc2ncc(C(F)(F)F)cc2Cl)cc1)C(=O)O (configuration not stated)
Potency [1]: inconclusive: 15.4 µM [inhibitor, full curve, poor fit] | Potency [2, 13]: inconclusive: 34.4 µM [rising, partial curve] | Potency [3, 14]: inconclusive: 17.2 µM [rising, full curve] | Potency [5]: active: 17.2 µM | Potency [9]: inconclusive: 13.7 µM [cytotoxic, full curve] | Potency [7]: inconclusive: 15.4 µM [rising, full curve] | Potency [11]: active: 7.7 µM | Potency [8]: inconclusive: 6.11 µM [cytotoxic, full curve] | Potency [12]: inactive

C[C@]12CC[C@H]3[C@@H](CCC4=CC(=O)CC[C@@]43C)[C@@H]1CC[C@@H]2O
Potency [1]: inconclusive: 24.2 µM [inhibitor, partial curve, poor fit] | Potency [2, 13]: active: 5.41 µM | activity, negative = inhibition [3, 14]: inconclusive: 3.22% | Potency [5]: inconclusive: 34.1 µM [cytotoxic, partial curve] | Potency [10]: inconclusive: 3.83 µM [full curve] | Potency [7]: inconclusive: 0.541 µM [rising, full curve, poor fit] | Potency [8]: inconclusive: 24.2 µM [rising, partial curve]

Nc1c(Cl)cc([N+](=O)[O-])cc1Cl
Potency [1]: inconclusive: 68.6 µM [inhibitor, single point] | activation [2, 13]: inconclusive: 13% | activity, negative = inhibition [3, 14]: inconclusive: 22.9% | Potency [4]: inactive and inconclusive: 27.3 µM [cytotoxic, partial curve] | Potency [5]: active: 61.5 µM and active: 27.3 µM | Potency [9]: inconclusive: 54.8 µM [cytotoxic, partial curve] and inconclusive: 19.3 µM [cytotoxic, partial curve] | Potency [6]: inconclusive: 54.8 µM [cytotoxic, partial curve, poor fit] and inconclusive: 54.5 µM [cytotoxic, partial curve] | Potency [7]: inconclusive: 54.8 µM [partial curve, poor fit] and active: 30.6 µM | Potency [11]: inconclusive: 2.17 µM [cytotoxic, full curve] | Potency [8]: inconclusive: 69 µM [cytotoxic, partial curve, poor fit] and inconclusive: 2.73 µM [cytotoxic, full curve] | Potency [12]: inconclusive: 61.6 µM [cytotoxic, partial curve, poor fit]

c1ccc2c(c1)Nc1ccccc1S2
Potency [1]: inconclusive: 27.3 µM [inhibitor, full curve] | activation [2, 13]: inconclusive: 1.83% | activity, negative = inhibition [3, 14]: inconclusive: -34.4% | activity, negative = inhibition ([3]; at 42.5 µM (top of the series)): inactive: -1.55% | Potency [4]: inconclusive: 68.6 µM [cytotoxic, partial curve, poor fit] | Potency [5]: inconclusive: 30.6 µM [cytotoxic] | Potency [10]: active: 1.54 µM | Potency [8]: inconclusive: 24.3 µM [rising, full curve]

CCCCON=O
Potency [1]: inactive

Nc1cccnc1
Potency [1]: inactive | Potency [2, 13]: inactive | Potency [3, 14]: inactive
